# Several values for one entry are separate records, joined by “and”; a condition that tells them apart may be missing. Equal entries are not always repeated. Out of some 420,000 compounds screened, about 64,000 (15%) were called active. The shares of active, inactive and inconclusive entries below differ from those in the screen. Calls follow the shape of the dose curve; as a rule, active = well fitted inhibition curve with a large enough effect; inconclusive = small, poorly fitted or top-dose-only effect; inactive = flat fitted curve, though single readings scatter. A potency beside an inconclusive call is a rough fit, not a confirmed value.
# Assay: qHTS for Inhibitors of human tyrosyl-DNA phosphodiesterase 1 (TDP1): qHTS in cells in absence of CPT; also: nearly all actives have a fitted effect of over 55% in size
# Settings: DT40 Tdp1-/- hTDP1 cells, no CPT, ATP luminescence, 48 h; activity change, negative = growth inhibition: at 46.2 µM (top of the series) unless noted
# Method in brief: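 Cells were dispensed at 400 per well, compounds added by pin tool, plates incubated ≥48 hr at 37 °C, then CellTiter-Glo added for 30 min at room temperature before luminescence reading. Line: DT40 Tdp1-/- complemented with hTDP1; camptothecin omitted.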
# % is scaled to controls: 0 for no effect and ±100 for the full control effect; potency is read from the fitted curve at half-maximal effect; tags tell the direction and shape of the fitted curve.
Compound,Potency,"activity change, negative = growth inhibition"
COC(=O)C1=C(c2ccc(OC(F)(F)F)cc2)C[C@@H]2CC[C@H]1N2C(=O)NCc1cc(C)oc1C(F)(F)F,active: 20.6 µM,
CN1CCC2(CC1)CC(NC=O)c1ccccc1O2 (stereo not drawn),,inactive: 0.314%
O=C(NCc1ccco1)c1ccc(Cn2c(=O)c3ccccc3n(Cc3cccc(F)c3)c2=O)cc1,"inconclusive: 20.6 µM [inhibitor, single point]",
O=c1c2ccccc2nc(CN2CCCCCC2)n1-c1ccc(F)cc1,"inconclusive: 18.4 µM [inhibitor, single point]",
O=c1c2ccccc2nc(/C=C/c2ccc(O)c(O)c2)n1-c1ccccc1,active: 25.9 µM,
CC12CN3CC(C)(CN(C1)C3c1cccs1)C2 (stereo not drawn),,inactive: -6.5%
S=C(Nc1ccccc1)Nc1ccccn1,"inconclusive: 29.1 µM [inhibitor, single point]",
C[C@@H](CO)NC(=O)[C@@H]1C=C2c3cccc4[nH]cc(c34)C[C@H]2N(C)C1,"inconclusive: 66.8 µM [inhibitor, partial curve, poor fit]",
COc1cc(OC)c(OC)cc1CNCCc1ccc2c(c1)OCO2,"inconclusive: 20.6 µM [inhibitor, partial curve]",
O=C(NC1CN2CCC1CC2)c1cc(Cl)c([N+](=O)[O-])c2nc[nH]c12 (stereo not drawn),"inconclusive: 16.4 µM [inhibitor, single point]",
COC(=O)C1=C(c2ccccc2OCc2ccccc2)C[C@@H]2CC[C@H]1N2C,active: 23.1 µM,
NP(=O)(OCCCc1ccccc1)Oc1ccc(Cl)cc1 (stereo not drawn),,inactive: -11.7%
COC(=O)N1CCN(C(=O)Cc2ccc(Cl)c(Cl)c2)[C@H](CN2CCCC2)C1,"inconclusive: 26.6 µM [inhibitor, partial curve, poor fit]",
CN1CCN(C(=O)OC2c3nccnc3C(=O)N2c2ccc(Cl)cn2)CC1 (stereo not drawn),inactive,
CC(C)(CN)CC(=O)O,,inactive: -4.69%
FC(F)(F)c1ccc2c(c1)ncn2C1CCN(Cc2nnnn2C2CCCCC2)CC1,"inconclusive: 16.4 µM [inhibitor, single point]",
COC(=O)c1ccc(COC(=O)c2nn(C)c(=O)c3ccccc23)cc1,"inconclusive: 16.4 µM [inhibitor, single point]",
CNCCc1ccc(OC)c(OC)c1,,inactive: -18.3%
COC(=O)C1=C(c2cc3ccccc3s2)C[C@@H]2CC[C@H]1N2C(=O)NCCO,,inactive: -0.15%
CC1=CC(O)C(O)C2(C)C1CC1OC(=O)C(O)C3C(C)C(O)C4(O)OCC13C42 (stereo not drawn),,inactive: -19.8%
O=[N+]([O-])c1cc(F)c(N2CCCCC2)cc1Br,"inconclusive: 29.1 µM [inhibitor, single point]",
Cc1cccc(NC(=O)C2CCCN(S(=O)(=O)c3ccc4c(c3)oc(=O)n4C)C2)c1 (stereo not drawn),"inactive and inconclusive: 18.4 µM [inhibitor, single point]",
O=c1[nH]c(=O)n(-c2ccc(F)cc2)c(O)c1/C=C1\C=Nc2ccccc21,,inactive: 1.19%
Cc1noc(C)c1CSc1nc2cc(S(=O)(=O)N3CCOCC3)ccc2o1,"inconclusive: 25.9 µM [inhibitor, single point]",
CC(C)NS(=O)(=O)c1ccc(OCC(=O)N2CCN(Cc3ccccc3)CC2)c(Cl)c1,"inconclusive: 25.9 µM [inhibitor, single point]",

Compound,Potency,"activity change, negative = growth inhibition"
CCOC(=O)c1c(C)n(Cc2ccco2)c2ccc(O)cc12,,inactive: 1.89%
O=C1NC(=O)N(c2ccccc2)C(=O)/C1=C\c1ccc([N+](=O)[O-])s1,active: 8.2 µM,
Clc1cccc(N2Cc3cc(N4CCOCC4)ccc3-n3nncc3C2)c1,"inconclusive: 16.4 µM [inhibitor, single point]",
COCCCN=Cc1c(O)[nH]c(=S)[nH]c1=O,,inactive: -8.85%
ClCCN(CCCl)c1ccc(C=Nc2ccncc2)cc1,active: 11.2 µM,
C=CCN1C(=O)NC(=O)/C(=C/c2ccc(OC)c(COc3ccc(NC(C)=O)cc3)c2)C1=O,active: 3.66 µM,
CC(C)(C)n1nnnc1C(C1CC1)N1CCC(n2c(=O)[nH]c3ccccc32)CC1 (stereo not drawn),"inconclusive: 18.4 µM [inhibitor, single point]",
Cc1cccc(N2C(=O)NC(=O)/C(=C\c3cnn(-c4ccccc4)c3)C2=O)c1,"inconclusive: 16.4 µM [inhibitor, single point]",
Cc1cccc(NC(=O)c2cc3c(=O)n4ccccc4nc3n2C)c1C,active: 0.651 µM,
O=Cc1cn(Cc2cccc(F)c2)c2ccccc12,"inconclusive: 16.4 µM [inhibitor, partial curve]",
O=C1N[C@@H](Cc2ccccc2)C(=O)N2[C@H]3Nc4ccccc4[C@@]3([C@]34C[C@H]5C(=O)N[C@@H](Cc6ccccc6)C(=O)N5[C@H]3Nc3ccccc34)C[C@@H]12,"inconclusive: 29.1 µM [inhibitor, single point]",
NCCc1c[nH]c2ccccc12,inactive,
C[C@]12CC[C@H](O)C[C@H]1CC[C@@H]1[C@@H]2C[C@@H](O)[C@]2(C)[C@@H](C3=CC(=O)OC3)CC[C@]12O,"inconclusive: 29.1 µM [inhibitor, single point]",
CN1CCN(c2cc(N3CCNCC3)ccc2[N+](=O)[O-])CC1,active: 7.31 µM,
N#Cc1ccc(OCC(=O)N2CCN(Cc3ccc4c(c3)OCO4)CC2)cc1,"inconclusive: 6.51 µM [inhibitor, full curve]",
CCO/N=C(\CC)C1=C(O)CC(c2c(C)cc(C)cc2C)CC1=O (stereo not drawn),"inconclusive: 43.3 µM [inhibitor, single point]",
Cc1cc(C=C2C(=O)N(C)C(=O)N(C)C2=O)c(C)n1-c1ccccc1,,inactive: 3.12%
O=S(=O)(c1ccc(Cl)cc1)N1CCC(n2cnc3cc(C(F)(F)F)ccc32)CC1,"inconclusive: 20.6 µM [inhibitor, partial curve]",
CCOC(=O)C1=C(C)OC(N)=C(C(=O)OC)C12C(=O)Nc1ccc(Br)cc12 (stereo not drawn),"inconclusive: 11.6 µM [inhibitor, single point]",
Cc1c(NP(=S)(C(C)(C)C)C(C)(C)C)c(=O)n(-c2ccccc2)n1C,,inactive: -16%
CCC(C)NC(=O)CCC(=O)OC1O[C@H]2OC3(C)CC[C@H]4[C@H](C)CCC(C1C)C24OO3 (stereo partly drawn),active: 0.184 µM,
CCOC(=O)[C@]12Cc3cc(Cl)ccc3[C@H]1N(C1CCCCC1)C(=O)c1ccccc12,active: 2.31 µM,
O=C(CSC1c2ccccc2-c2ccccc21)N/N=C/c1ccccc1O,active: 6.51 µM,
CN1C2CCC1CC(OC(c1ccccc1)c1ccccc1N)C2 (stereo not drawn),"inconclusive: 25.9 µM [inhibitor, single point]",
COC(=O)C1=C(c2ccccc2)C[C@@H]2CC[C@H]1N2C(=O)NCc1ccco1,,inactive: -23.1%

Compound,Potency,"activity change, negative = growth inhibition"
Cc1ccc(-c2nnc(Nc3ccc(O)cc3)c3ccccc23)cc1S(=O)(=O)N1CCOCC1,active: 16.4 µM,
Cc1ccc(Nc2nnc(-c3ccc(C)c(S(=O)(=O)NCc4nc5ccccc5[nH]4)c3)c3ccccc23)cc1,"inconclusive: 20.6 µM [inhibitor, single point]",
ClCCN(CCCl)c1ccc(C=Nc2ccc(/C=C/c3ccncc3)cc2)cc1,active: 12.6 µM,
CCC(c1nnnn1C(C)(C)C)N1CCC2(CC1)C(=O)NCN2c1ccccc1 (stereo not drawn),"inconclusive: 29.1 µM [inhibitor, single point]",
COc1ccc([C@H]2CC(=O)C=C(c3ccc4c5c(cccc35)CC4)C2)cc1,"inconclusive: 29.1 µM [inhibitor, single point]",
COC(/C(C)=C/C=C/C(C)=C/c1coc(C)n1)C(C)C1CC(O)C2(C)OC2C=CC(C)C2CC(CC(=O)O2)CC2OC2C(=O)O1 (stereo not drawn),active: 0.0184 µM,
Clc1ccc(CCC(Cn2ccnc2)Sc2c(Cl)cccc2Cl)cc1 (stereo not drawn),active: 25.9 µM,
CC(=NCc1ccc2c(c1)OCO2)c1c(O)n(-c2ccc(C)cc2)c(=O)[nH]c1=O,,inactive: -8.08%
O=C1/C(=C/c2ccccc2Cl)N2CCC1CC2,,inactive: 0.613%
CN(C)C(=O)Oc1ccc2c(c1)O/C(=C\c1ccccc1)C2=O,,inactive: 1.24%
COc1ccc(OCC(=O)N2CCN(C/C=C/c3ccccc3)CC2)cc1,"inconclusive: 18.4 µM [inhibitor, partial curve, poor fit]",
Nc1c(C(=O)OCc2ccccc2)c2nc3ccccc3nc2n1Cc1cccs1,"inconclusive: 16.4 µM [inhibitor, single point]",
CC(C)NP(=O)(NC(C)C)OP(=O)(NC(C)C)NC(C)C,,inactive: -7.9%
C#CC(CC)(CC)NC(=O)Nc1ccc(OCC)cc1,,inactive: -27%
COc1ccc(C(=O)Cn2c(NCCO)nc3ccccc32)cc1,"inconclusive: 13 µM [inhibitor, partial curve]",
COC(=O)C1=C(C(=O)OC)C2OC1c1cc3ccccc3cc12,active: 0.731 µM,
C[N+](C)(C)CCOC(=O)C(O)(c1ccccc1)c1ccccc1,,inactive: -1.42%
Cc1ccccc1CCNCc1cc2cccc(C)c2[nH]c1=O,active: 16.4 µM,
COc1ccc2nc(-c3ccc(CN4CCC(n5c(=O)[nH]c6ccccc65)CC4)cc3)c(-c3ccccc3)nc2c1,active: 14.6 µM,
COc1cccc(CN2CCN(Cc3cccc(F)c3)CC2)c1,,inactive: -28.3%
COC(=O)C1=C(c2ccc(C(C)=O)cc2)C[C@@H]2CC[C@H]1N2C(=O)N1CCC(O)(c2ccc(Cl)cc2)CC1,active: 9.2 µM,
C[C@]12CC[C@@H](O)CC1=CC(=O)C1C2CC[C@]2(C)C(=O)[C@H](O)CC12 (stereo partly drawn),,inactive: -15.5%
CCC(=O)Oc1ccc(C(=O)Nc2cccc(C(=O)c3ccccc3)c2)cc1,"inconclusive: 25.9 µM [inhibitor, single point]",

# From PubChem BioAssay AID686978 (National Center for Advancing Translational Sciences (NCATS), 2013)
